In PubChem BioAssay AID488969 (Vanderbilt High Throughput Screening Facility, 2010) one finds z-score data, which are given here for 111 molecules.

Each structure is given as a SMILES string. Whole data set: some 110,000 compounds, median “z-score” near -0.1, cut for the highest 2% near 2. The list shows a part of the results. The source made the active and inactive calls.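 How the source made its calls: active means z-score in the third read window above 3 or below -3; inactive means the rest.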

In the experiment the target is Metabotropic glutamate receptor 8 (Rattus norvegicus) (UniProt P70579). Briefly: mGluR8 Gi/Go-coupled signaling modulation – cell-based, rat, thallium flux, HTS, primary screen (AID 488969). The following applies: HEK293 rat mGluR8, GIRK (G protein-gated inwardly rectifying potassium channel) thallium flux, FluoZin2; at 10 µM; stronger effect = higher value; submaximal glutamate (EC20) added with thallium.
UniProt P70579, sequence (P70579 whole entry, looked up): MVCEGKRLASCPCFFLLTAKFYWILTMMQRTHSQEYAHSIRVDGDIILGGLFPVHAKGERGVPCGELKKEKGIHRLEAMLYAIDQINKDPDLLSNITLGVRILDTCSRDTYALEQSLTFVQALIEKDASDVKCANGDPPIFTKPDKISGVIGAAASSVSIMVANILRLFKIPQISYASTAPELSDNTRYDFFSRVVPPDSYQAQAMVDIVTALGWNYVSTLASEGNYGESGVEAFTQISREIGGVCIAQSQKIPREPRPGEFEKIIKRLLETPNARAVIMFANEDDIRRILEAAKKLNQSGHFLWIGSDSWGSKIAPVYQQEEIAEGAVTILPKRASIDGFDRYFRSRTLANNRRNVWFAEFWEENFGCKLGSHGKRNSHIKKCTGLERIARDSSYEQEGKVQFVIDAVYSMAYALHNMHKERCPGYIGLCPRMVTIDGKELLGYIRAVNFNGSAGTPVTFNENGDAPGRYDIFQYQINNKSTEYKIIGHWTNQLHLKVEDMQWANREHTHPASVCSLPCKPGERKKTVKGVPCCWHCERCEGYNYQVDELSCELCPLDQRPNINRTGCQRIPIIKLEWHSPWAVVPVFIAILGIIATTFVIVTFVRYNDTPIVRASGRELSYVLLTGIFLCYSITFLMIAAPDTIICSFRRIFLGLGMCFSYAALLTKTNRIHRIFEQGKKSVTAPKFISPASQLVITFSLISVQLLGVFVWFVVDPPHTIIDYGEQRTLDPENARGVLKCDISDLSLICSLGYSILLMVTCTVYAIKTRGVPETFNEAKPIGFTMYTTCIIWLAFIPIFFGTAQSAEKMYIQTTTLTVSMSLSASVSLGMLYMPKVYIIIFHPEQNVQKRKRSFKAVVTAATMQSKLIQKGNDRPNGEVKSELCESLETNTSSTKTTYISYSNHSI
On to `CCCC(=O)Nc1cccc(NC(=O)c2ccc3c(c2)OCO3)c1`, for which the z-score was -0.181. As for `CC(NC(=O)c1ccc(Cn2cc([N+](=O)[O-])cn2)o1)c1ccccc1` (stereo unspecified), the z-score was determined as 0.0431. In the case of `Cc1ccc(NC(=O)NCCN2C(=O)C3C4C=CC(C4)C3C2=O)cc1` (stereo unspecified) it was 0.072; in that of `CN(C)S(=O)(=O)N1CCN(C(=O)N2CCCCCC2)CC1`, -0.197. The value for `COc1cccc(OC)c1C(=O)NC(=S)Nc1ccc2oc(=O)ccc2c1` was -0.2.

`CCC(=O)Nc1ccc(NC(=O)CSc2nc3cc4c(cc3cc2C)CCC4)cc1` registered a z-score of -0.0861. Turning to `Cc1ccc(CNc2cc(-c3nn4c(C)nnc4s3)ccc2C)s1`, the z-score was -0.352. The value for `O=C(c1ccc2c(c1)c(=O)oc1ccccc12)N1CCCCC1` was -0.151. `COc1ccccc1CN=c1c([N+](=O)[O-])nn(-c2ccc3c(c2)OCCO3)n1O` came in with a z-score of -0.0943. In the case of `CSc1nnc([C@@H](NC(=O)OC(C)(C)C)C(C)C)o1` it was 1.74. With `COC(=O)C1=NN(C(=O)c2ccc(Cl)cc2)C(O)(c2ccccc2)C1` (stereo unspecified), the z-score is active: 11.5.

`CCOC(=O)c1sc(N(C)C(C)=O)nc1C` showed a z-score of -0.141. In the case of `CCOc1cc(C(=O)Nc2cc(C)on2)cc(OCC)c1OCC` it was -0.128; in that of `CCOC(=O)N1CCN(C(=O)C2CCC(CNS(=O)(=O)c3ccccc3)CC2)CC1` (stereo unspecified), -0.0503. Molecule `COc1cccc(Oc2ccc(C(F)(F)F)cc2N)c1` showed a z-score of -0.291.

Consider `CCC(N)C12CC3CC(CC(O)(C3)C1)C2` (stereo unspecified), for which the z-score is -0.212. `CNC(=S)N1N=C(c2ccc(C)cc2)CC1c1ccc(Br)cc1` (stereo unspecified) gave a z-score of -0.0362. The value for `O=C(Cn1cnc2cc([N+](=O)[O-])ccc2c1=O)Nc1ccc2c(c1)CCC2` was -0.0344; that for `Cc1ccc(S(=O)(=O)NC2=C(N3CCN(c4ccccc4F)CC3)C(=O)c3ccccc3C2=O)cc1` was 0.268. The value for `O=C(N/N=C/c1ccc2c(c1)OCO2)c1cc(-c2ccc(F)cc2)nc2ccccc12` was -0.0177; that for `N#C/C(=C/c1cn(CC(=O)O)c2ccccc12)c1ccc(F)cc1` was -0.58. The value for `Cc1cccc(C(=O)NCC2CCCO2)c1` (stereo unspecified) was 2.21. Regarding `CN(CC(=O)Nc1ccc(C(N)=O)cc1)CC(=O)Nc1ccccc1Cl`, the z-score was -0.217. In turn, `Cc1c(C(=O)O)c2cc(O)ccc2n1-c1ccccc1` returned a z-score of 0.362.

On to `O=C(O)CCc1ccc(-c2cccs2)n1NC(=O)c1ccco1`, for which the z-score came out at 0.718. The value for `COc1cc(/C=C/C(=O)Nc2ccccc2C(F)(F)F)cc(OC)c1OC` was -0.503; that for `O=C1C2C3C=CC(CC3)C2C(=O)N1c1nccs1` (stereo unspecified) was -0.26; that for `CCC(=O)Nc1ccc(Nc2nc(C)c([N+](=O)[O-])c(Nc3ccc(NC(=O)CC)cc3)n2)cc1` was -0.755. `Cc1ccc(COc2cccc3c2CCN(Cc2ccc(F)cc2)C3=O)cc1` gave a z-score of 1.1.

`O=C(Cc1ccccc1)Nc1ccc(N2CCCC2)cc1` came in with a z-score of -0.805. In the case of `CCc1sc(N)nc1-c1ccccc1` it was -0.082.

The molecule `CCNC(=S)N1CCn2c(nc3ccccc32)C1` registered a z-score of -0.38. In the case of `CCN(CC)S(=O)(=O)c1ccc(OC)c(NC(=S)Nc2cc(C)ccc2C)c1` it was 0.0642; in that of `CSc1n[nH]c(-c2sccc2OCc2ccc(C)cc2)n1`, 0.203; in that of `Oc1ccc2ccccc2c1C=Nc1ccc(N2CCOCC2)cc1`, -0.644.

In the case of `O=C(NCC(c1ccco1)N1CCN(c2ccccc2)CC1)OCc1ccccc1` (stereo unspecified), the z-score was -0.199. The value for `COC(=O)c1ccc(C(=O)OC)c(NC(=O)CSc2nnc(-c3ccccc3Cl)o2)c1` was -0.149. In the case of `CCCc1cc(=O)[nH]c(/N=C(/NC(=O)C(C)N2C(=O)c3ccccc3C2=O)Nc2ccccc2)n1` (stereo unspecified), the z-score was -0.099. The value for `Cc1nn(Cc2ccc(C(=O)n3cccn3)o2)c(C)c1Br` was -0.832.

`COC(=O)c1c(C(=O)OC)c(-c2ccc(C)cc2)n2c1CCC2`: the z-score is -1.36.

Take `Cc1cc(C)cc(N(CC(=O)N2CC=C(c3ccccc3)CC2)S(=O)(=O)c2c(C)noc2C)c1`: the z-score is 0.0366. The value for `Cc1noc(C)c1C(=O)NCCC1=CCCCC1` was -0.0916; that for `CC1=Nc2cccc3cccc(c23)N1C` was -0.00241; that for `CCOCCCNC(=O)Cc1c(C(=O)O)[nH]c2ccc(Cl)cc12` was 0.12.

In turn, `COc1ccc(Nc2nnc(SCC(=O)Nc3cc(C)on3)s2)cc1` yielded a z-score of -1.08.

`CCOc1ccc2nc(SC3CC(=O)N(c4ccccc4)C3=O)sc2c1` (stereo unspecified): the z-score was found to be 0.171. In the case of `CCOCC(=O)N1CCN(c2ccc(F)cc2)CC1` it was 0.0288; in that of `Cc1ccc(CCc2nnc(SCC(=O)Nc3cc(Cl)ccc3Cl)n2-c2ccccc2)o1`, -0.585.

`COc1ccc(N2CCN(C(CNC(=O)OCc3ccccc3)c3ccco3)CC2)cc1` (stereo unspecified) came in with a z-score of -0.203. `c1ccc(C2=Nc3cccc4cccc(c34)N2)cc1` registered a z-score of -0.647. The value for `CCC(C)N=C1SCC(C)(/C=N/O)S1` (stereo unspecified) was -0.0708.

For `COc1ccc(C)cc1NC(=O)CN(Cc1nnc(-c2ccc(Cl)cc2)o1)C1CCCC1`, the z-score was 0.145. In the case of `O=C(Cn1cc2c(n1)CCCC2)N1CCCC1` it was 0.266; in that of `COc1ccc(/C=N/NC(=S)NCc2ccccc2)cc1OC`, -0.135. With `CC1CC(c2ccccc2)n2nc(NC(=O)CCc3ccccc3)nc2N1` (stereo unspecified), the z-score worked out at 0.229. In the case of `O=C(O)C(Oc1ccc2c3c(c(=O)oc2c1)CCC3)c1ccccc1` (stereo unspecified) it was -0.902; in that of `Cc1cccc(Cn2c(=O)n(-c3ccc(CC(=O)NCc4ccco4)cc3)c(=O)c3sccc32)c1`, -0.101.

Consider `Clc1ccccc1Cn1nnc2c(N3CCOCC3)nc(C3CC3)nc21`, for which the z-score came to 0.257. The value for `O=C(COc1ccccc1)Nc1ccc2c(c1)Cc1cc(NC(=O)COc3ccccc3)ccc1-2` was -0.155; that for `Cc1nn(-c2ccccc2C(=O)O)c(=O)c2ccccc12` was 0.0122; that for `Cc1ccc(O)c(N=Cc2ccc(C)s2)c1` was -0.0821. The value for `Cn1/c(=N/NC(=O)c2cccc(OC(F)F)c2)sc2ccccc21` was 0.439; that for `O=C(CSc1nnc(-c2cccnc2)n1-c1ccc(F)cc1)NCc1ccc2c(c1)OCO2` was -0.123; that for `Cc1ccc(CNC(=O)c2cc3c(=O)n(C)c4ccccc4c3n2C)o1` was -0.2.

For `CC(C)(C)n1ncc2c(=O)n(CC(=O)NCc3ccco3)cnc21`, the z-score was -0.0912. In the case of `O=S(=O)(/N=C(\c1ccccc1)N1CCOCC1)c1cccs1` it was -0.275. Consider `CCCOC(=O)C1[C@H]2C(=O)N(CC3CCCO3)C[C@]23C=C[C@H]1O3` (stereo partly specified), for which the z-score came to 0.0385. The value for `O=C(Nc1ccccc1N1CCCC1)c1ccc(Br)o1` was -0.726; that for `Cn1c2ccccc2c2c(C(=O)N3CCN(c4ccccc4)CC3)cn(C3CCCC3)c(=O)c21` was -0.462.

On to `COc1ccccc1CNCC(=O)Nc1ccc(N2CCOCC2)cc1`, for which the z-score is -0.233. The value for `CCn1c(SCC(=O)NCC2CCCO2)nnc1-c1ccccc1` (stereo unspecified) was -0.0704; that for `CC(C)c1nccn1S(=O)(=O)c1cc(Cl)ccc1Cl` was -0.163; that for `CC(=O)Nc1nnc(SCc2ccc(F)cc2)s1` was -0.167.

In the case of `CC1=C(C(=O)OCc2ccccc2)C(c2cccnc2)n2ncnc2N1` (stereo unspecified), the z-score is -0.355. In the case of `Cc1cccc(C)c1OCc1nnc(SCC(=O)NCCc2ccccc2)o1` it was -0.0648. The molecule `CCOc1ccc(/C(O)=C2/C(=O)C(=O)N(CC3CCCO3)C2c2ccco2)cc1` (stereo unspecified) displayed a z-score of -0.17. The value for `COc1ccc(CN2CCn3ncc(C(=O)Nc4cc(C)cc(C)c4)c3C2=O)cc1` was -0.164.

The molecule `Cc1ccsc1C(=O)N/N=C/C=C/c1ccccc1[N+](=O)[O-]` yielded a z-score of -0.106. In turn, `CCN(CC(=O)Nc1ccc2c(c1)OCCO2)S(=O)(=O)c1ccc(C)cc1` showed a z-score of -0.159. In the case of `CC(C)COc1ccc(CN=C(N)N=C(N)N)cc1Cl`, the z-score amounted to 0.407.

In the case of `O=C1N2CCSC2=NC1(Nc1nccs1)C(F)(F)F` (stereo unspecified), the z-score was -0.385. Regarding `COc1ccc(CCCc2nnc(SCC(=O)N/N=C\c3ccc(O)c(OC)c3)o2)cc1C`, the z-score is -0.173.

Consider `COc1cc(/C=C(/C#N)C(=O)Nc2ccc(C)cc2)ccc1Oc1nc(Cl)ncc1F`, for which the z-score is -0.0861. `CC(C)[C@@H]1CC[C@@H](C)c2c(-c3ccccc3)n[nH]c21` gave a z-score of -0.123. The value for `COc1ccccc1C(=O)Nc1ccc(S(=O)(=O)N2CCCC2)cc1` was 1.5.

`CC(NC(=O)CN1CCCC1)C12CC3CC(CC(C3)C1)C2` (stereo unspecified) gave a z-score of 0.259. In the case of `Cc1ccc(N(C(C)C(=O)Nc2ccc(S(=O)(=O)N3CCOCC3)cc2)S(C)(=O)=O)cc1C` (stereo unspecified) it was 0.173; in that of `Cc1nnc(Cl)c2nn(-c3ccccc3)c(C)c12`, -0.154; in that of `COc1ccc2nc(N3CCC(O)CC3)c(C#N)cc2c1`, 0.0837.

`O=C(CN1CCN(c2ccc(F)cc2)CC1)N1CCC(Cc2ccccc2)CC1` came in with a z-score of -0.162. The value for `O=C(O)c1[nH]c2ccccc2c1-c1ccccc1` was -0.254; that for `CS(=O)(=O)N1CCN(c2ccc(NC(=O)c3ccc(-c4ccc(Cl)cc4)o3)cc2)CC1` was 0.22. `Cc1ccn(S(=O)(=O)c2ccc(C(C)(C)C)cc2)n1` displayed a z-score of -0.368. In the case of `CCc1ccc(/C=N/Nc2nn[nH]n2)cc1` it was -0.456. Regarding `Cc1ccc(C(=O)NCC(=O)OCC(=O)c2c(N)n(C)c(=O)n(C)c2=O)s1`, the z-score was 0.459.

In the case of `CCOC(=O)c1ccc(N2C(=O)CC(C(=O)OC)=C2C)cc1`, the z-score was -0.0579. The value for `CCN(CC(=O)Nc1ccccc1OC)C(=O)Cn1cnc2ccccc2c1=O` was -0.0954. In turn, `O=Nc1c2nc3ccccc3n(O)c-2c2ccccc12` displayed a z-score of 1.16. In the case of `CCC(=O)Nc1nnc(SCCN2CCOCC2)s1` it was 0.112; in that of `O=C(Nc1ccc(CN2CCCCC2)cc1)c1cccc(Br)c1`, -0.404; in that of `COc1cccc(C2NC(CCSC)(C(=O)O)C3C(=O)N(C(C)C)C(=O)C23)c1O` (stereo unspecified), -0.143. The value for `COc1ccc(OC)c(NC(=O)C2CCN(c3cc(-c4ccccc4)nc4ncnn34)CC2)c1` was -0.764. The value for `COC(=O)CSc1nnc(-c2sc3cc(OC)ccc3c2Cl)n1C` was -1.34; that for `O=C(NC(=S)NCC1CCCO1)C(c1ccccc1)c1ccccc1` (stereo unspecified) was -0.0494; that for `CCCc1[nH][nH]c(=O)c1C(c1cccc(Cl)c1)C(C#N)C#N` (stereo unspecified) was -0.852. On to `O=C(Nc1cnc2ccccc2c1)c1cccc(-n2cnnn2)c1`, for which the z-score was -0.963. As for `CCCCC(=O)Nc1ccc(C(=O)Nc2ccc3c(c2)OCO3)cc1`, the z-score is -0.0978.

Take `CC(C)(C)c1ccc(S(=O)(=O)NCCOCC(F)(F)C(F)F)cc1`: the z-score came to 0.431. In the case of `Cc1ccc(O)c(C2=NCCNC(C(F)(F)C(F)F)=C2)c1` it was -0.0269; in that of `CCCNS(=O)(=O)c1ccc(CCC(=O)NCc2ccc3c(c2)OCO3)cc1`, 0.303; in that of `Cn1c(SCC(=O)NCc2ccco2)nnc1-c1cccs1`, -0.331.
